Several values for one entry are separate records, joined by “and”; a condition that tells them apart may be missing. Equal values may be shown once. In all, about 94,000 compounds went through this assay and about 6,200 (6.6%) were called active. This list was built around the results that the source calls inconclusive (neither active nor inactive); the mix of calls is not that of the screen. The call rests on the fitted dose curve; in most records, active means well fitted inhibition curve with a large enough effect; inconclusive means small, poorly fitted or top-dose-only effect; inactive means flat fitted curve, though single readings scatter. Potencies of inconclusive entries are doubtful fits and often do not repeat.
Assay: Cytotoxic Profiling in HEK 293 Cell Line of Diverse Libraries Using Quantitative High-Throughput Screening; further: nearly all actives have a fitted effect of over 60% in size
Details: HEK 293 viability, ATP luminescence (CellTiter-Glo), 48-72 h; activity change, negative = cytotoxicity: at 115 µM (top of the series) unless noted; series mostly up to 115 µM
How it was run: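 CellTiter-Glo luminescence (cellular ATP) was read after 48 or 72 hr of compound exposure at 37 degree Celsius. Cells were HEK 293 plated at 250 cells/well.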
On the % scale 0 is the no-effect control and ±100 the full control effect; potency means the concentration at half of the fitted maximal effect; tags describe the fitted curve by direction and shape.

Row | Structure (SMILES) | Potency | activity change, negative = cytotoxicity | outcome
1 | O=C1Nc2ccccc2OCC12CCN(Cc1ccccc1)CC2 | inconclusive: 63.1 µM [inhibitor, partial curve] |  | 
2 | CC(C)c1nc2c(c(-c3ccc(Cl)cc3)n1)CCN(Cc1ccnn1C)CC2 | inconclusive: 79.4 µM [inhibitor, partial curve, poor fit] |  | 
3 | O=C(c1ccc(F)cc1)N1CCC[C@H]1c1nc(-c2ccccc2)no1 | inconclusive: 35.5 µM [inhibitor, partial curve, poor fit] |  | 
4 | CCc1cccc(NC(=O)CC2CCCN(c3cn[nH]c(=O)c3)C2)c1 (configuration not stated) | inconclusive: 22.4 µM [inhibitor, full curve] |  | 
5 | COc1cccc(CC(=O)N2CCC3(CC2)NC(=O)N(c2cccc(Cl)c2)N3)c1 | inconclusive: 50.1 µM [inhibitor, partial curve] |  | 
6 | CCOC(=O)c1ccc(NC(=O)Cn2nc3n(c2=O)CCCCC3)cc1 |  | inactive: -1.17% | 
7 | CCC(CC)C(=O)NC[C@@H]1C=C(C)[C@H](Cc2nc3ccc(C(=O)OC)cc3[nH]2)C[C@H]1C(C)C | inconclusive: 44.7 µM [inhibitor, partial curve, poor fit] |  | 
8 | O=C1[C@@H]2C[C@@H](CN2C(=O)c2cncnc2)Oc2ccccc2N1Cc1ccccc1 |  | inactive: -5.94% [at 172 µM] | 
9 | O=C(NCc1nnc2ccccn12)C1NCCc2[nH]cnc21 (configuration not stated) |  | inactive: 0.78% | 
10 | COc1ccccc1C(=O)NCc1nnc2c(-c3nc(C4CC4)no3)cccn12 |  | inactive: -17.1% | 
11 | CC(C)N[C@H]1C[C@@H](Cc2cc(-c3ccccc3)on2)C1(C)C | active: 63.1 µM |  | 
12 | O=C(NC1CCCC1)c1ccc2nnc(-c3cccc(OC(F)(F)F)c3)n2c1 | inconclusive: 20 µM [inhibitor, full curve, poor fit] |  | 
13 | CC(C)(C)NC(=O)N1CCCCCCNC(=O)[C@@H]2C[C@@H](C(=O)NCCc3cnc[nH]3)C[C@@H]21 |  |  | inactive
14 | COc1ccccc1-c1cc(C(=O)NCCc2ccc(Cl)cc2)c2cnn(C)c2n1 | inconclusive: 79.4 µM [inhibitor, partial curve, poor fit] and inconclusive: 50.1 µM [inhibitor, partial curve, poor fit] |  | 
15 | CC(C)CCN1CCCC2(C1)C(=NC1CCCCC1)NC(=O)N2c1cccnc1 (configuration not stated) | inconclusive: 79.4 µM [inhibitor, partial curve, poor fit] |  | 
16 | CN1C[C@@H](NC(=O)Nc2ccccc2)C[C@H]1c1nc(-c2ccc(F)cc2)no1 | active: 56.2 µM |  | 
17 | Cc1cnc(CNC(=O)c2cc(CN3CCC(Cc4ccccc4)CC3)on2)cn1 | inconclusive: 89.1 µM [inhibitor, single point] |  | 
18 | O=C(Cc1csc(-c2ccccc2)n1)N[C@H](c1ccccn1)C1CC(O)C1 (some centres not stated) |  | inactive: -26.6% | 
19 | COC(=O)CNC(=O)N1CCCCC1c1nc(CCOc2ccc(F)cc2)no1 (configuration not stated) | inconclusive: 70.8 µM [inhibitor, partial curve, poor fit] |  | 
20 | O=C(NCC1CCCO1)c1noc(-c2ccc[nH]c2=O)n1 (configuration not stated) |  | inactive: -7.67% | 
21 | COc1ccc(F)cc1-c1ccc(C(=O)O)cc1 |  |  | inactive [at 172 µM]
22 | COCCC(=O)N1CCC(C2CCN(C(C)=O)CC2)C1 (configuration not stated) |  | inactive: -0.327% | 
23 | CC1(c2ccccc2)N(Cc2ccc(O)cc2)C(=O)OC12CCN(CC1CC1)CC2 (configuration not stated) | inconclusive: 79.4 µM [inhibitor, partial curve, poor fit] |  | 

Row | Structure (SMILES) | Potency | activity change, negative = cytotoxicity | outcome
24 | Cc1ccc(-c2cc(N3CCCN(C(=O)CCc4ccccc4)CC3)n[nH]2)cc1C | inconclusive: 44.7 µM [inhibitor, partial curve, poor fit] |  | 
25 | COCCn1c(=O)n([C@H]2CCCN(C(=O)c3cc(F)ccc3F)C2)c2ncccc21 | inconclusive: 50.1 µM [inhibitor, partial curve, poor fit] |  | 
26 | CC(=O)Nc1nc2c(s1)C[C@@H]1[C@](C)(CO)[C@H](O)CC[C@@]1(C)[C@@H]2CC(=O)N1CCOCC1 |  | inactive: 4.45% | 
27 | O=C(Cn1c2c(c(=O)n1Cc1ccccc1)CCN(Cc1ccccc1)C2)NCc1ccc2c(c1)OCO2 | inconclusive: 89.1 µM [inhibitor, single point] |  | 
28 | CN1CCN(C(=O)c2ccc3nnc(C4CCCC4)n3c2)CC1 |  | inactive: -0.51% [at 172 µM] | 
29 | CCOc1ccc(CC(=O)N2CCC(Cc3nc(-c4ccc(OC)cc4)no3)CC2)cc1 | inconclusive: 11.2 µM [inhibitor, full curve, poor fit] |  | 
30 | CNC(=O)c1cc(C)nc2onc(C3CCCN3C(=O)Cc3cccc(OC)c3)c12 (configuration not stated) |  | inactive: -4% | 
31 | CNc1ncncc1-c1nc(-c2ccccc2)no1 | inconclusive: 56.2 µM [inhibitor, partial curve, poor fit] |  | 
32 | Cc1ccccc1CCN1CCCC(CN(C)C(=O)c2cc3ccccc3[nH]2)C1 (configuration not stated) | active: 22.4 µM |  | 
33 | Cc1cccc(N2CCN(C(=O)CCc3conc3-c3ccccc3)CC2)c1C | active: 44.7 µM |  | 
34 | O=C(NC1CCCC1)c1cc(C2CC2)nc2onc(C3CCCN3)c12 (configuration not stated) |  | inactive: -5.97% | 
35 | CCN1C(=O)CCN(C(=O)c2ccoc2)CC12CCOCC2 |  | inactive: -2.49% | 
36 | CCOC(=O)N1CCN(Cc2nc(-c3ccc(C)s3)oc2C)CC1 | inconclusive: 22.4 µM [inhibitor, full curve, poor fit] |  | 
37 | CCC(CC)C(=O)N[C@H]1CCN2C(=O)c3cc(-c4cc(Cl)ccc4OC)ccc3NC(=O)[C@@H]2C1 |  | inactive: 2.55% | 
38 | COC[C@@H]1CN(S(=O)(=O)c2ccccc2C)C[C@H]1c1nc(C)no1 |  |  | inactive
39 | Cc1nn2c(c1-c1ccccc1C(C)C)N(C(=O)Cc1ccc3c(c1)OCO3)CCC2 | inconclusive: 112 µM [inhibitor, partial curve] |  | 
40 | CCCn1ncc(N2CCC(C(=O)N(CCc3ccncc3)CC3CCCO3)CC2)cc1=O (configuration not stated) |  | inactive: -11.3% | 
41 | CC(C)OC(=O)c1ccc(NC(=O)Cn2nc3c(cc2=O)CCCCC3)cc1 | inconclusive: 56.2 µM [inhibitor, partial curve, poor fit] |  | 
42 | CCn1c(Cn2ccnc2)nnc1C1CCN(Cc2ccc(F)c(F)c2)CC1 |  | inactive: -2.49% | 
43 | COc1ccc(CCN2Cc3cc(NC(=O)Cc4ccc(F)cc4)ccc3OC(C)C2=O)cc1 (configuration not stated) | inconclusive: 79.4 µM [inhibitor, partial curve, poor fit] |  | 
44 | CC1Oc2ccc(NC(=O)Nc3ccccc3)cc2CN(Cc2ccccc2)C1=O (configuration not stated) | active: 44.7 µM |  | 
45 | CN1c2cc(C(=O)N3CCN(c4ccccc4F)CC3)ccc2C(=O)N2CCCC21 (configuration not stated) |  | inactive: 9.35% | 
46 | O=C(C1CCCN(Cc2cccc(-c3ccc(F)cc3F)c2)C1)N1CCN(Cc2ccccc2)CC1 (configuration not stated) | inconclusive: 44.7 µM [inhibitor, partial curve, poor fit] |  | 

Row | Structure (SMILES) | Potency | activity change, negative = cytotoxicity | outcome
47 | CCNc1ncc(C(=O)NC(C)c2cnn(-c3ccccc3C)c2C)cn1 (configuration not stated) |  | inactive: -18.1% | 
48 | O=C(NCC(=O)N1CCCCC1)c1cccc(-c2ccsc2)c1 | inconclusive: 35.5 µM [inhibitor, partial curve, poor fit] |  | 
49 | Fc1ccc(CNC[C@H]2Cn3c(-c4ccc5c(c4)OCCO5)cnc3CO2)cc1 | inconclusive: 100 µM [inhibitor, partial curve] |  | 
50 | O=C(C1CCCCN1Cc1ccc(-c2cccs2)cc1)N1CCCCC1 (configuration not stated) | inconclusive: 56.2 µM [inhibitor, partial curve, poor fit] |  | 
51 | COCCNC(=O)[C@H]1C[C@H](Oc2ccccc2)CN1C(=O)NC1CCCCC1 | inconclusive: 100 µM [inhibitor, single point] |  | 
52 | COc1ccc(CCNC(=O)c2ccc(-c3ccc(OC)nn3)cc2Cl)cc1 |  | inactive: -20.7% | 
53 | COc1ccc(-c2nnc(C[C@@H]3C[C@@H](C(C)C)[C@H](CN(C)CCC#N)C=C3C)o2)cc1 | active: 63.1 µM |  | 
54 | CCn1ccnc1CN1CCCC12CCN(c1ccc(C(F)(F)F)cn1)CC2 | inconclusive: 50.1 µM [inhibitor, partial curve, poor fit] |  | 
55 | COc1ccc(CN2CCOc3nc(-c4cc(F)cc(F)c4)ncc3C2=O)cc1 | inconclusive: 35.5 µM [inhibitor, full curve] |  | 
56 | Cc1noc(C)c1CCC(=O)NC1CCc2nn(CC3CC3)c(=O)n2CC1 (configuration not stated) |  |  | inactive
57 | CC(C)(C)c1ccc(-c2cc(C[C@H]3CNCC[C@H]3CC(=O)NCc3cccnc3)no2)cc1 | inconclusive: 35.5 µM [inhibitor, full curve, poor fit] |  | 
58 | Cc1ccc(C(=O)NC(C(=O)N2CCCCC2)C2CCN(C(=O)C(C)C)CC2)cc1 (configuration not stated) | inconclusive: 89.1 µM [inhibitor, single point] |  | 
59 | COc1ccccc1Nc1ncc2c(n1)CN(C(=O)c1ccccc1)CCN2 | inconclusive: 89.1 µM [inhibitor, partial curve, poor fit] |  | 
60 | O=c1n(-c2ccncc2)nc2n1CCN([S+](=O)([O-])c1cccc(C(F)(F)F)c1)C2 | inconclusive: 89.1 µM [inhibitor, single point] |  | 
61 | CCOc1ccccc1NC(=O)Cn1c(-c2ccc(F)cc2)nc(C)cc1=O | inconclusive: 89.1 µM [inhibitor, single point] |  | 
62 | CC(C)C[C@@H]1N[C@H](C(=O)N2CCOCC2)Cc2cn(Cc3cccnc3)c3cccc1c23 |  | inactive: -26.4% [at 172 µM] | 
63 | O=C(c1ccc2c(c1)OCO2)N1CCC2(CC1)CC(c1ccccc1)=NO2 | inconclusive: 50.1 µM [inhibitor, partial curve, poor fit] |  | 
64 | Cc1ccc(N2CCN(c3nc(C(=O)O)cs3)CC2)cc1 |  | inactive: -2.35% | 
65 | O=C(c1ccccn1)N1CCC2(COc3ncccc3S(=O)(=O)N2)C1 (configuration not stated) |  |  | inactive
66 | COc1ccccc1-c1cc(C(=O)NCc2ccccc2Cl)nn2cnnc12 | inconclusive: 56.2 µM [inhibitor, partial curve, poor fit] |  | 
67 | O=C(CCc1ccccc1)N1CCNc2cnc(Nc3cccnc3)nc2C1 |  |  | inactive [at 172 µM]

Reference: PubChem BioAssay AID1345083 (National Center for Advancing Translational Sciences (NCATS), 2018)
